# In paper PMC12040169 (PLOS Biology, 2025):
# The list shows a part of the results.
# Tested on: T1, C. trachomatis L2/434/Bu expressing GFP (CTL2-GFP)
# T1 construct: L2/434/Bu GFP intracellular growth in HeLa cells
# Design: species or system HeLa; C. trachomatis total inclusion area by high-content imaging, normalised to DMSO
# Conditions: total inclusion area; 28.5 h, 10 µM; inhibitor
# Summary of the method: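 High-content imaging followed the bulk GFP/resorufin measurement: fixed, Hoechst-stained cells were scored for GFP inclusions and host nuclei per well. Total inclusion area and count served as growth proxies, nuclei number as the viability proxy. MIC calculation matched the bulk assay.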
row,Structure (SMILES),% of control remaining
1,N#Cc1ccc(-n2cc(-c3ccc(F)cc3F)nn2)cc1 [CBK112990],59.7829
2,CS(=O)(=O)N1C[C@@H]2CCCCN(Cc3cccc(F)c3)[C@@H]2C1 [CBK285514],98.5515
3,O=C(NC[C@H]1CCCN(C(=O)c2cccs2)C1)c1ccco1 [CBK284261],108.004
4,NS(=O)(=O)c1ccc(CNC(=O)c2cc(-c3cccnc3)nc3ccc(Br)cc23)cc1 [CBK267740],111.511
5,CCOc1ccccc1-c1ccccc1NC(=O)c1ccc(-n2nc(C)cc2C)cc1 [CBK285845],6.407
6,CCOC(=O)C1CCN(Cc2nc(-c3ccc(OC)c(OC)c3)no2)CC1 [CBK268852],98.496
7,Cc1ccc(CN(Cc2c[nH]cn2)C2CC(C)(C)NC(C)(C)C2)o1 [CBK283175],102.977
8,Cc1cccc(-c2noc(CNC(=O)CSc3ccccc3)n2)c1 [CBK270209],97.6957
9,COc1cc(Nc2cc(C)nc3ncnn23)ccc1N1CCCC1=O [CBK297725],122.425
10,O=C(O)COCC(=O)N1CCN(C(c2ccccc2)c2ccccc2)CC1 [CBK232579],104.253
11,CCNC(=O)NC[C@H]1C[C@@H]2CCN1C[C@@H]2c1cc(-c2ccccc2)nc(C)n1 [CBK289125],96.7276
12,COc1ccc(CNC(=O)N(Cc2cccnc2)Cc2ccc3c(c2)OCO3)cc1OC [CBK159456],109.499
13,CCN(CC)C(=O)CN1CCC(Oc2cncc(OCc3cccnc3)n2)C1 (stereo not drawn) [CBK084461],81.1355
14,CCOC(=O)c1[nH]c2ccccc2c1NC(=O)Cc1c(Cl)cccc1Cl [CBK160132],92.0234
15,COc1cc(NC(=O)c2cc([N+](=O)[O-])ccc2N2CCOCC2)ccc1-c1cc2ccccc2oc1=O [CBK269128],83.1624
16,Cc1nnc(-c2cc(CCC(C)C)n(-c3cccc(C(=O)N4CCCCC4)c3)n2)o1 [CBK114689],79.3305
17,N#Cc1cccnc1SC(C(=O)O)c1ccccc1 (stereo not drawn) [CBK286614],76.5445
18,COc1ccc(-c2nnc(S)n2/N=C\c2ccc(C(=O)O)cc2)cc1 [CBK264419],119.945
19,Cc1csc(C(Cc2ccsc2)NC(=O)c2cnn(C)c2C)n1 (stereo not drawn) [CBK285148],106.325
20,COc1ccc(CCC(=O)N2CCC(c3cccc(Cc4cccc(F)c4)n3)CC2)cc1 [CBK286212],92.0793
21,Cc1cc(NC(=O)c2sc3nc4c(cc3c2N)N2CCC4CC2)no1 [CBK270217],60.17
22,CC(C)N1C(=O)[C@@H]2CN(C(=O)C3CCCC3)CCN2C1=O [CBK289612],109.043
23,O=C(NCc1cn2ccccc2n1)c1ccc(C2SCCS2)cc1 [CBK295167],93.8858
24,O=C(C1CN(C(=O)Cn2ncc(=O)c3ccccc32)c2ccccc2O1)N1CCCCC1 (stereo not drawn) [CBK297115],96.2985
25,O=[N+]([O-])c1ccccc1S(=O)(=O)N1CCN(S(=O)(=O)Cc2ccccc2)CC1 [CBK264230],104.559
26,COc1ccccc1CC(C)NC(=O)c1cc(C2CC2)nn1C (stereo not drawn) [CBK283290],81.446

row,Structure (SMILES),% of control remaining
1,COc1ccc(OC)c(NC(=O)c2cc(=O)[nH]c3ccccc23)c1 [CBK297521],101.785
2,COC(=O)N1CCC(C(=O)NC(c2ccccc2)c2ncccc2C)CC1 (stereo not drawn) [CBK059885],89.365
3,OCCNc1nc(Nc2ccc(Br)cc2)nc2ccccc12 [CBK266724C],0.8015
4,Cc1cc2c(o1)c1cnn(CC(=O)N3CCC(C)CC3)c(=O)c1n2C [CBK284236],76.4252
5,O=C(c1csc2c1CCCC2)N1CCC(O)(c2ccccn2)CC1 [CBK282397],72.0864
6,O=C(NCCc1ccccc1)c1c(NC(=O)C2COc3ccccc3O2)sc2c1CCCC2 (stereo not drawn) [CBK265522],88.2872
7,CCN1CCN(Cc2cc(Cl)ccc2OCCCn2ccnc2)CC1 [CBK306990],87.4369
8,CCCC(=O)Nc1ccccc1NC(=O)c1cccc([N+](=O)[O-])c1C [CBK267398],104.642
9,Cc1cc(C(=O)NCCCN(C)C)ccc1[N+](=O)[O-] [CBK262467],100.626
10,COc1cc2c(cc1NS(=O)(=O)N1CCCCC1)oc1ccccc12 [CBK268355],110.679
11,COc1ccc2c(c1)CCC(c1ccccc1)=C2c1ccc(OCC(O)CN)cc1 (stereo not drawn) [CBK015723C],12.1226
12,Cn1c(CCNC(=O)c2cccs2)nc2cc([N+](=O)[O-])ccc21 [CBK268511],109.529
13,CC1(C)Cc2c(cnn2-c2ccccc2)C(NS(=O)(=O)C2CC2)C1 (stereo not drawn) [CBK307351],76.9263
14,Cc1ccc(Oc2ccc(CNC(=O)c3sc4nc[nH]c(=O)c4c3C)cc2)cc1 [CBK285857],83.9615
15,COCC(=O)Nc1cc(OC)c(Cl)cc1OC [CBK264448],110.554
16,O=C1OC(c2ccccc2)=C/C1=C1/C(=O)Nc2ccccc21 [CBK115375],96.6396
17,COCC(C)NC(=O)c1cnn2c(C(F)(F)F)cc(-c3cccs3)nc12 (stereo not drawn) [CBK307417],108.567
18,O=c1[nH]c(-c2ccccc2)nc2c1CN(Cc1cccs1)CC2 [CBK282330],102.716
19,O=C(NCC1CCOCC1)c1cc(-c2cccnc2)cnc1NCc1ccc2c(c1)OCO2 [CBK154825],107.207
20,Cn1cc(-c2ncc(OCCOc3ccccc3)nc2N)cn1 [CBK145171],91.4272
21,O=C(Nc1nonc1-c1nc2ccccc2n1CCOC(=O)c1ccc(F)cc1)c1ccc(F)cc1 [CBK062653],103.429
22,Cc1noc(C)c1C(=O)N1CCC[C@@H](C(=O)c2ccccc2F)C1 [CBK282249],84.5763
23,COc1ccccc1N1CCN(CCC(=O)Nc2ccc(Br)c(C)c2)CC1 [CBK264218],90.6127
24,COc1ccc([C@H]2CN(C(=O)c3ccccc3)[C@@H]3CCN(Cc4cccs4)C[C@H]23)cc1 [CBK285582],80.8126
25,C=Cn1cc(CN2CCCC(c3cc4cccnc4[nH]3)C2)c(C)n1 (stereo not drawn) [CBK284944],61.9343
26,Cc1n[nH]c(NC(=O)/C=C/C(=O)O)c1-c1ccc(F)cc1 [CBK287068],94.357

row,Structure (SMILES),% of control remaining
1,O=C(Cc1ccc(-c2ccccc2)cc1)N1CCC2(CC1)Nc1ccccc1S(=O)(=O)N2 [CBK286189],109.085
2,COc1ccc2[nH]c3c(c2c1)CCNC31CCN(CCCN2C(=O)C3CCCCC3C2=O)C1 (stereo not drawn) [CBK059518],158.988
3,O=S(=O)(Nc1cccc(-c2nnn[nH]2)c1)c1ccc(Br)s1 [CBK160377],95.872
4,CN(C)S(=O)(=O)N(CC(=O)Nc1ccccc1C(F)(F)F)c1ccccc1 [CBK268665],120.008
5,O=C(Oc1ccccc1)c1cc(Cl)cnc1Cl [CBK090320],80.4458
6,Oc1ccc(-n2cc(-c3ccccc3C(F)(F)F)nn2)cc1 [CBK112971],80.5538
7,CCC(=O)NCc1ccc(-c2cc(CN(C)C)n(C)n2)cc1 [CBK281668],98.1826
8,NC(=O)Cn1c(=O)n(CCc2ccccc2)c(=O)c2c3c(sc21)CCCC3 [CBK267665],87.3299
9,CC(C)C(=O)Nc1sc2c(c1C(=O)NCc1cccnc1)CCC2 [CBK306144],67.2645
10,Cc1ccc(S(=O)(=O)Nc2sc3c(c2C(=O)N2CCN(C)CC2)CCCC3)cc1[N+](=O)[O-] [CBK028650],102.852
11,CN(C)S(=O)(=O)Nc1ccccc1C(N)=O [CBK264382],91.2563
12,Cc1cc(=O)[nH]c(CCNc2cc([C@H]3C[C@@H](N)C3)nc(C3CC3)n2)n1 [CBK307651],43.6978
13,Cc1nc(C(Cc2ccsc2)NC(=O)Cn2ccnc2)sc1C (stereo not drawn) [CBK284777],97.7626
14,O=C(NC1CCc2ccccc21)N1CCN(Cc2ccccc2)CC1 (stereo not drawn) [CBK155662],97.8052
15,O=C1CC2(CCN(S(=O)(=O)Cc3ccc(Cl)cc3)CC2)CN1 [CBK283355],75.9806
16,O=C(Cc1c[nH]c2ccccc12)N1CCCC1c1ccc(F)cc1 (stereo not drawn) [CBK297927],108.075
17,CSc1ccc(CN(CCO)CCO)cc1 [CBK261931],89.8269
18,CC(CNC(=O)C(C)(C)C)NC(=O)C(C)(C)C (stereo not drawn) [CBK265443],78.7391
19,O=C(O)C1C2C=CC(C2)C1C(=O)N1CCN(Cc2ccccc2Cl)CC1 (stereo not drawn) [CBK270334],85.1031
20,Cc1cccc(C(=O)Nc2cc(NC(=O)c3cccc(C)c3)cc(C(=O)O)c2)c1 [CBK269649],91.6143
21,CCOC(=O)CN1CCC(Oc2nccnc2OCC2COc3ccccc3O2)CC1 (stereo not drawn) [CBK082989T],105.489
22,COCCC(=O)Nc1cnc(-c2ccc(F)c(Cl)c2)c(-c2cccnc2)n1 [CBK036938],131.874
23,CC(NC(=O)N(Cc1ccc(-c2ccccc2)cc1)CC(C)(C)CN)c1cccc2ccccc12 (stereo not drawn) [CBK002426C],1.447
24,Fc1cc(Br)c(CNCc2cocn2)c(N2CCCCC2)c1F [CBK304792],68.2368
25,CN1CCN(Cc2c(-c3ccc(F)cc3)[nH]c3ncccc23)CC1 [CBK285335],91.6997
26,CN1CCN(C(=O)CNS(=O)(=O)c2cc(Br)c(Cl)s2)CC1 [CBK034482],70.7246
